Test results published in the supplement of paper PMC4967469.
A lower IC50 marks a more sensitive line; fits outside the tested doses are given as limits. The AUC spans the tested range (256-fold, ending at the top dose) of the same fit; the more sensitive the line, the further below 1. For part of these data: Any top dose called inferred was derived from the fitted curves, not read from the paper. For part of these data: Drugs with an entry number were screened twice under separate entries, and the two screens often disagree.

What was measured:
Assay in all cases: Viability of human cancer cell lines after 72 h of drug (GDSC screen)
UNC0638 = compound: COc1cc2c(NC3CCN(C(C)C)CC3)nc(C3CCCCC3)nc2cc1OCCCN1CCCC1 [UNC0638]
Description: (§1)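 Human cancer cell lines in 384-well plates, medium with 10% serum, drug for 72 h over a 256-fold dose range (nine 2-fold or five 4-fold steps up to the top dose). Adherent lines were fixed and stained with the nucleic acid dye Syto60, suspension lines read with resazurin; signal relative to control wells, capped at 0 and 100%. One two-parameter sigmoid per drug and line, fitted in a mixed model over all curves with the slope shared within a line.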

WH-4-023 = compound: COc1ccc(N(C(=O)Oc2c(C)cccc2C)c2ccnc(Nc3ccc(N4CCN(C)CC4)cc3)n2)c(OC)c1 [WH-4-023]; details: top dose 5.12 µM; top dose inferred
Description: as §1

PI-103 = compound: Oc1cccc(-c2nc(N3CCOCC3)c3oc4ncccc4c3n2)c1 [PI-103]; details: top dose 10.24 µM
Description: as §1

GSK690693 = compound: CCn1c(-c2nonc2N)nc2c(C#CC(C)(C)O)ncc(OC[C@H]3CCCNC3)c21 [GSK690693]; details: top dose 10.24 µM; top dose inferred
Description: as §1

SB-505124 = compound: Cc1cccc(-c2[nH]c(C(C)(C)C)nc2-c2ccc3c(c2)OCO3)n1 [SB-505124]; details: top dose 10 µM; top dose inferred
Description: as §1

BX-795 = compound: O=C(NCCCNc1nc(Nc2cccc(NC(=O)N3CCCC3)c2)ncc1I)c1cccs1 [BX-795]; details: top dose 5 µM; top dose inferred
Description: as §1

[1] = top dose 40 µM, screen: GDSC drug entry 245
[2] = top dose 20 µM, screen: GDSC drug entry 1236, top dose inferred

| Cell Line | AUC (UNC0638; [1]) | IC50 (UNC0638; [1]) [µM] | AUC (WH-4-023) | IC50 (WH-4-023) [µM] | AUC (PI-103) | IC50 (PI-103) [µM] | AUC (GSK690693) | IC50 (GSK690693) [µM] | AUC (SB-505124) | IC50 (SB-505124) [µM] | AUC (UNC0638; [2]) | IC50 (UNC0638; [2]) [µM] | AUC (BX-795) | IC50 (BX-795) [µM] |
| --- | --- | --- | --- | --- | --- | --- | --- | --- | --- | --- | --- | --- | --- | --- |
| BC-3 (B-cell lymphoma, suspension) | 0.662 | 6.69 | 0.986 | > 5.12 | 0.974 | > 10.2 | 0.833 | 5.64 | – | – | – | – | – | – |
| CAL-148 (breast, suspension) | 0.806 | 18.6 | 0.989 | > 5.12 | 0.847 | 6.71 | 0.464 | 0.513 | – | – | – | – | – | – |
| COLO-829 (melanoma, adherent) | 0.625 | 6.49 | 0.488 | 0.292 | 0.442 | 0.412 | 0.941 | > 10.2 | 0.975 | > 10 | 0.817 | 19 | – | – |
| CP67-MEL (melanoma, adherent) | – | – | 0.794 | 4.93 | – | – | – | – | – | – | – | – | – | – |
| ES3 (Ewing sarcoma, adherent) | 0.736 | 12.3 | 0.98 | > 5.12 | 0.433 | 0.417 | 0.512 | 0.693 | 0.968 | > 10 | 0.737 | 6.19 | 0.806 | 2.71 |
| EW-12 (Ewing sarcoma, suspension) | – | – | 0.977 | > 5.12 | – | – | – | – | – | – | – | – | – | – |
| H-EMC-SS (chondrosarcoma, adherent) | 0.856 | > 40 | 0.738 | 1.91 | 0.63 | 1.63 | 0.885 | > 10.2 | – | – | – | – | 0.876 | > 5 |
| HCC1599 (breast, suspension) | 0.699 | 9.95 | 0.943 | > 5.12 | 0.424 | 0.384 | 0.713 | 2.82 | – | – | – | – | – | – |
| HCC-33 (small cell lung carcinoma, adherent) | 0.701 | 9.26 | 0.985 | > 5.12 | 0.68 | 2.05 | 0.927 | > 10.2 | – | – | – | – | – | – |
| HCE-4 (oesophagus, adherent) | 0.982 | > 40 | 0.922 | > 5.12 | 0.992 | > 10.2 | 0.992 | > 10.2 | 0.983 | > 10 | 0.896 | 18.4 | – | – |
| HEL (acute myeloid leukaemia, semi-adherent) | 0.757 | 11.7 | 0.986 | > 5.12 | 0.535 | 0.786 | 0.99 | > 10.2 | 0.991 | > 10 | 0.843 | 10.8 | – | – |
| HL-60 (acute myeloid leukaemia, suspension) | 0.725 | 10.1 | 0.99 | > 5.12 | 0.293 | 0.179 | 0.968 | > 10.2 | 0.98 | > 10 | 0.832 | 11 | 0.83 | 2.72 |
| HT-144 (melanoma, adherent) | 0.814 | 25.1 | 0.895 | > 5.12 | 0.971 | > 10.2 | 0.984 | > 10.2 | 0.982 | > 10 | 0.806 | 11.7 | 0.892 | > 5 |
| Hs-445 (Hodgkin lymphoma, suspension) | 0.744 | 11.7 | 0.964 | > 5.12 | 0.334 | 0.23 | 0.671 | 1.84 | 0.987 | > 10 | 0.825 | 10.8 | – | – |
| IST-MES1 (mesothelioma, adherent) | 0.807 | 20.8 | 0.405 | 0.176 | 0.96 | > 10.2 | 0.987 | > 10.2 | 0.986 | > 10 | 0.836 | 13.4 | – | – |
| JAR (urogenital system, adherent) | 0.883 | > 40 | 0.967 | > 5.12 | 0.729 | 2.82 | 0.884 | > 10.2 | 0.808 | 5.06 | 0.762 | 6.99 | 0.868 | 4.4 |
| KALS-1 (glioma, adherent) | 0.646 | 7.41 | 0.869 | > 5.12 | 0.458 | 0.471 | 0.83 | 10 | 0.924 | > 10 | 0.732 | 7.48 | – | – |
| KG-1 (acute myeloid leukaemia, suspension) | 0.796 | 16.5 | 0.9 | > 5.12 | 0.301 | 0.19 | 0.987 | > 10.2 | 0.971 | > 10 | 0.986 | > 20 | 0.861 | 3.52 |
| KNS-81-FD (glioma, adherent) | 0.646 | 7.37 | 0.977 | > 5.12 | 0.768 | 5.21 | 0.958 | > 10.2 | 0.911 | > 10 | 0.944 | > 20 | 0.916 | > 5 |
| KP-N-RT-BM-1 (neuroblastoma, semi-adherent) | – | – | 0.908 | > 5.12 | – | – | – | – | – | – | – | – | – | – |
| KP-N-YS (neuroblastoma, adherent) | 0.574 | 4.11 | 0.795 | 2.79 | 0.398 | 0.322 | 0.906 | > 10.2 | – | – | – | – | – | – |
| LB996-RCC (kidney, adherent) | 0.977 | > 40 | 0.279 | 0.0677 | 0.983 | > 10.2 | 0.98 | > 10.2 | 0.981 | > 10 | 0.981 | > 20 | 0.869 | > 5 |
| LC-2-ad (lung adenocarcinoma, adherent) | 0.625 | 5.6 | 0.189 | 0.0365 | 0.42 | 0.385 | 0.925 | > 10.2 | 0.984 | > 10 | 0.814 | 11.3 | 0.714 | 1.28 |
